# Some of the results follow. Repeats are few or missing, and single values can be far off.
# Test system: COLO829
# Experiment: cell count relative to DMSO control; melanoma cells; higher = more viable cells
# Settings: library dose: low library concentration; 72 h
# 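Note: cell number obtained by counting DAPI-stained nuclei in high-throughput microscope images with image analysis software, screen run in 1,536-well plates.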
row,SMILES,cell count [%]
1,"Cn1cncc1[C@@](N)(c1ccc(Cl)cc1)c1ccc2c(c1)c(-c1cccc(Cl)c1)cc(=O)n2C [tipifarnib] + Cc1cc(SCc2sc(-c3ccc(C(F)(F)F)c(F)c3)nc2C)ccc1OCC(=O)O [GW0742] (first compound 0.01 µM, partner dose 2 µM)",107
2,"O=C(Nc1ccccc1)c1cc([N+](=O)[O-])ccc1Cl + Cc1cc(SCc2sc(-c3ccc(C(F)(F)F)c(F)c3)nc2C)ccc1OCC(=O)O [GW0742] (first compound 2 µM, partner dose 2 µM)",101
3,"O=C(Oc1ccc([N+](=O)[O-])cc1)N1CCC(C(O)(c2ccc3c(c2)OCO3)c2ccc3c(c2)OCO3)CC1 + O=c1cc(-c2cccc3c2Sc2ccccc2S3)oc(N2CCOCC2)c1 [KU55933] (first compound 1 µM, partner dose 1 µM)",108
4,"C[C@]1(c2nc3c(C(N)=O)cccc3[nH]2)CCCN1 [Veliparib] + C/C(O)=C(\C#N)C(=O)Nc1cc(Br)ccc1Br [LFM-A13] (first compound 1.4 µM, partner dose 2 µM)",78.9
5,"O=C(Nc1ccccc1)c1cc([N+](=O)[O-])ccc1Cl + O=C(Oc1ccc([N+](=O)[O-])cc1)N1CCC(C(O)(c2ccc3c(c2)OCO3)c2ccc3c(c2)OCO3)CC1 [JZL184] (first compound 2 µM, partner dose 1 µM)",86.8
6,"CCc1ccc(CCOc2ccc(CC3SC(=O)NC3=O)cc2)nc1 (configuration not stated) [pioglitazone] + O=C(Oc1ccc([N+](=O)[O-])cc1)N1CCC(C(O)(c2ccc3c(c2)OCO3)c2ccc3c(c2)OCO3)CC1 [JZL184] (first compound 2 µM, partner dose 1 µM)",76.4
7,"O=C(Nc1cc(C(F)(F)F)cc(C(F)(F)F)c1)c1cc(Cl)ccc1O + Cn1cc(C2=C(c3cn(C4CCN(Cc5ccccn5)CC4)c4ccccc34)C(=O)NC2=O)c2ccccc21 [Enzastaurin] (first compound 0.016 µM, partner dose 0.8 µM)",142
8,"Cc1ccc(Nc2nccc(N(C)c3ccc4c(C)n(C)nc4c3)n2)cc1S(N)(=O)=O [Pazopanib] + Cn1cc(C2=C(c3cn(C4CCN(Cc5ccccn5)CC4)c4ccccc34)C(=O)NC2=O)c2ccccc21 [Enzastaurin] (first compound 0.4 µM, partner dose 0.8 µM)",91.7
9,"O=C(Nc1cc(C(F)(F)F)cc(C(F)(F)F)c1)c1cc(Cl)ccc1O + N.N.[Cl][Pt][Cl] [cisplatin] (first compound 0.016 µM, partner dose 1.6 µM)",117
10,"O=C(Nc1cccc(Cl)c1)Nc1ncc(CCNc2ncnc3ccsc23)s1 + O=C(Oc1ccc([N+](=O)[O-])cc1)N1CCC(C(O)(c2ccc3c(c2)OCO3)c2ccc3c(c2)OCO3)CC1 [JZL184] (first compound 0.0008 µM, partner dose 1 µM)",85
11,"N#Cc1c(O)c2c(-c3ccc(-c4ccccc4O)cc3)csc2[nH]c1=O + Cc1cc(SCc2sc(-c3ccc(C(F)(F)F)c(F)c3)nc2C)ccc1OCC(=O)O [GW0742] (first compound 2 µM, partner dose 2 µM)",109
12,"O=C(Nc1cccc(Cl)c1)Nc1ncc(CCNc2ncnc3ccsc23)s1 + Cc1cc(SCc2sc(-c3ccc(C(F)(F)F)c(F)c3)nc2C)ccc1OCC(=O)O [GW0742] (first compound 0.0008 µM, partner dose 2 µM)",95.2
13,"O=C(Oc1ccc([N+](=O)[O-])cc1)N1CCC(C(O)(c2ccc3c(c2)OCO3)c2ccc3c(c2)OCO3)CC1 + Cn1cc(/C=C2\C(=O)Nc3cccnc32)c2ccccc21 [GW441756] (first compound 1 µM, partner dose 0.4 µM)",105
14,"Cn1cnc2c(F)c(Nc3ccc(Br)cc3Cl)c(C(=O)NOCCO)cc21 [selumetinib] + C[As](C)SC[C@H](NC(=O)CC[C@H](N)C(=O)O)C(=O)NCC(=O)O [Darinaparsin] (first compound 0.015 µM, partner dose 0.4 µM)",105
15,"CN(C)S(=O)(=O)c1ccc2c(c1)/C(=C/c1cc3c([nH]1)CCCC3)C(=O)N2 + Cc1cc(SCc2sc(-c3ccc(C(F)(F)F)c(F)c3)nc2C)ccc1OCC(=O)O [GW0742] (first compound 0.4 µM, partner dose 2 µM)",123
16,"C/C(O)=C(\C#N)C(=O)Nc1cc(Br)ccc1Br + CC(C)CCN1c2nc(Nc3cc(F)c(O)c(F)c3)ncc2N(C)C(=O)C1C [BID1870] (first compound 2 µM, partner dose 0.2 µM)",96.1

row,SMILES,cell count [%]
1,"Cc1cc(N2CCOCC2)cc2[nH]c(-c3c(NC[C@@H](O)c4cccc(Cl)c4)cc[nH]c3=O)nc12 + C/C(O)=C(\C#N)C(=O)Nc1cc(Br)ccc1Br [LFM-A13] (first compound 0.2 µM, partner dose 2 µM)",100
2,"CN(C)S(=O)(=O)c1ccc2c(c1)/C(=C/c1cc3c([nH]1)CCCC3)C(=O)N2 + O=C(Oc1ccc([N+](=O)[O-])cc1)N1CCC(C(O)(c2ccc3c(c2)OCO3)c2ccc3c(c2)OCO3)CC1 [JZL184] (first compound 0.4 µM, partner dose 1 µM)",94.4
3,"C/C(O)=C(\C#N)C(=O)Nc1cc(Br)ccc1Br + O=c1cc(-c2cccc3c2Sc2ccccc2S3)oc(N2CCOCC2)c1 [KU55933] (first compound 2 µM, partner dose 1 µM)",86.3
4,"C/C(O)=C(\C#N)C(=O)Nc1cc(Br)ccc1Br + CCCCCCCCCCCC1=C(O)C(=O)C=C(O)C1=O [Embelin] (first compound 2 µM, partner dose 1.2 µM)",87.4
5,"C/C(O)=C(\C#N)C(=O)Nc1cc(Br)ccc1Br + O=C(Oc1ccc([N+](=O)[O-])cc1)N1CCC(C(O)(c2ccc3c(c2)OCO3)c2ccc3c(c2)OCO3)CC1 [JZL184] (first compound 2 µM, partner dose 1 µM)",77.2
6,"N#Cc1c(O)c2c(-c3ccc(-c4ccccc4O)cc3)csc2[nH]c1=O + O=C(Oc1ccc([N+](=O)[O-])cc1)N1CCC(C(O)(c2ccc3c(c2)OCO3)c2ccc3c(c2)OCO3)CC1 [JZL184] (first compound 2 µM, partner dose 1 µM)",82.7
7,"Cn1nnc2c(C(N)=O)ncn2c1=O [temozolomide] + Cc1cc(SCc2sc(-c3ccc(C(F)(F)F)c(F)c3)nc2C)ccc1OCC(=O)O [GW0742] (first compound 2 µM, partner dose 2 µM)",85
8,"NC1(c2ccc(-c3nc4ccn5c(=O)[nH]nc5c4cc3-c3ccccc3)cc2)CCC1 + C[As](C)SC[C@H](NC(=O)CC[C@H](N)C(=O)O)C(=O)NCC(=O)O [Darinaparsin] (first compound 0.4 µM, partner dose 0.4 µM)",112
9,"COc1ccc(-c2ccc3c(N4CCOCC4)nc(N4C[C@@H](C)O[C@@H](C)C4)nc3n2)cc1CO + O=C(Oc1ccc([N+](=O)[O-])cc1)N1CCC(C(O)(c2ccc3c(c2)OCO3)c2ccc3c(c2)OCO3)CC1 [JZL184] (first compound 0.02 µM, partner dose 1 µM)",120
10,"Cc1ccc(NC(=O)c2cccc(N(C)C)c2)cc1NC(=O)c1ccc(O)cc1 + O=C(Oc1ccc([N+](=O)[O-])cc1)N1CCC(C(O)(c2ccc3c(c2)OCO3)c2ccc3c(c2)OCO3)CC1 [JZL184] (first compound 2 µM, partner dose 1 µM)",88.3
11,"Cn1sc(=O)n(Cc2ccccc2)c1=O + C[C@]12O[C@H](C[C@]1(O)CO)n1c3ccccc3c3c4c(c5c6ccccc6n2c5c31)CNC4=O [Lestaurtinib] (first compound 0.4 µM, partner dose 0.004 µM)",86.1
12,"Cc1cc(SCc2sc(-c3ccc(C(F)(F)F)c(F)c3)nc2C)ccc1OCC(=O)O + Oc1cc(-c2nc(-c3ccccc3)[nH]c2-c2ccncc2)ccc1Cl [L779450] (first compound 2 µM, partner dose 0.2 µM)",110
13,"O=S(=O)(c1ccccc1)N(CC(F)(F)F)c1ccc(C(O)(C(F)(F)F)C(F)(F)F)cc1 + Cc1cc(SCc2sc(-c3ccc(C(F)(F)F)c(F)c3)nc2C)ccc1OCC(=O)O [GW0742] (first compound 1.4 µM, partner dose 2 µM)",99.4
14,"COC(=O)c1sccc1S(=O)(=O)Nc1ccc(Nc2ccccc2)cc1OC + C/C(O)=C(\C#N)C(=O)Nc1cc(Br)ccc1Br [LFM-A13] (first compound 1 µM, partner dose 2 µM)",89
15,"Cc1ccc(Nc2nccc(N(C)c3ccc4c(C)n(C)nc4c3)n2)cc1S(N)(=O)=O [Pazopanib] + N.N.[Cl][Pt][Cl] [cisplatin] (first compound 0.4 µM, partner dose 1.6 µM)",94.7
16,"COc1cc(Nc2ncc(F)c(Nc3ccc4c(n3)NC(=O)C(C)(C)O4)n2)cc(OC)c1OC [Tamatinib] + O=C(Oc1ccc([N+](=O)[O-])cc1)N1CCC(C(O)(c2ccc3c(c2)OCO3)c2ccc3c(c2)OCO3)CC1 [JZL184] (first compound 0.4 µM, partner dose 1 µM)",69.7

# — the supplement of paper PMC4604168 (melanoma cell lines)
